Experimental data as given in PubChem BioAssay AID1963576 (National Center for Advancing Translational Sciences (NCATS), 2024).
About 60 (0.1%) of roughly 46,000 compounds were called active. Inconclusive results (about 3%) are left out. Calls come from the whole dose curve; as a rule, active = well fitted inhibition curve with a large enough effect; inconclusive = small, poorly fitted or top-dose-only effect; inactive = no such curve, though single readings can be large or run the other way. The list shows a part of the results.

Assay: Primary qHTS assay for Inhibitors of ovarian cancer metastasis using an organotypic tumor microenvironment (TME) model.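 For activity change, negative = inhibition: plate controls were DMSO wells for no effect and tomatine positive control wells for full effect.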 Note: nearly all actives have a fitted effect of over 65% in size.
Conditions: SKOV3ip1-GFP adhesion/invasion on 3D omental model, fluorescence; series mostly up to 45.8 µM; activity change, negative = inhibition: at the top concentration
Method in brief: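 Primary human omental fibroblast/mesothelial 3D culture pre-formed 48 h. SKOV3ip1-GFP cells added with compounds (0.36-46 umol/L), incubated 2 h RT/16 h 37 C, fixed; GFP cells quantified at 488/509 nm.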

Structure (SMILES) | activity change, negative = inhibition | outcome | Potency
Cc1ccc(C)c(N2CCN(S(=O)(=O)c3ccc4c(c3)CC(=O)N4C)CC2)c1 | inactive: -9.71% | – | –
Cc1ccc(C(=O)COC(=O)c2cccc(NC(=O)c3ccc(Br)cc3)c2)cc1 | inactive: 2.16% | – | –
CC(C)CCNC(=O)c1cccc(-n2cnc3cccnc32)c1 | inactive: 6.17% | – | –
Cc1cccc(N(CC(=O)Nc2cccc(Cl)c2C)S(C)(=O)=O)c1C | inactive: 6.41% | – | –
CCOCCCNC(=O)c1[nH]c2cc(OC)ccc2c1Sc1ccccc1 | inactive: -0.325% | – | –
COc1ccc(CCC(=O)NCc2nc3cccnc3n2Cc2ccc(C)cc2)cc1 | inactive: 9.71% | – | –
CCCN1C(=O)CN(C2CCCCC2)C(=O)C1c1ccc(OC)c(OC)c1 (stereo not given) | inactive: -2.3% | – | –
COc1ccc(NC(=O)Cn2c(=O)n(CCC(=O)NCCc3ccc(OC)c(OC)c3)c(=O)c3ccccc32)cc1Cl | – | inactive | –
CCCCCNS(=O)(=O)c1ccc(N2CCCCS2(=O)=O)cc1 | inactive: 0.028% | – | –
COC(=O)c1c(NC(=O)c2nc(SCc3ccc(C)cc3)ncc2Cl)sc2c1CCCC2 | inactive: -5.59% | – | –
Cc1cccc(-n2ncc(C(=O)N3CCN(C(=O)c4ccco4)CC3)c2C2CCN(C(=O)OC(C)(C)C)CC2)c1 | inactive: 4.96% | – | –
COc1cccc([C@@H]2Nc3ccc(C(=O)O)cc3[C@@H]3C=CC[C@@H]32)c1OC | inactive: 5.27% | – | –
Cc1ccc2c(=O)cc(C(=O)Nc3ccc(S(=O)(=O)Nc4onc(C)c4C)cc3)oc2c1 | inactive: -0.794% | – | –
O=C(NC1CC1)c1ccc(Cn2c(SCc3ccccc3F)nc3cccnc32)cc1 | inactive: 8.93% | – | –
Cc1ccc(N2CC(NC(=O)c3ccc(Br)o3)CC2=O)cc1C (stereo not given) | inactive: -3.89% | – | –
Cc1nn(CCC(=O)NCc2ccc(N(C)C)cc2)c(=O)c2nn(-c3ccccc3)c(C)c12 | inactive: 0.969% | – | –
Cc1ccc2c(c1)c(=O)c(C(=O)c1ccncc1)cn2CC(=O)Nc1ccc(C(C)C)cc1 | – | inactive | –
CC(NC(=O)C(=O)Nc1c2c(nn1-c1ccccc1)CSC2)c1ccccc1 (stereo not given) | inactive: -1.06% | – | –
COc1ccc(N2CCN(CC(O)COc3ccc(C(C)C)c(C)c3)CC2)cc1 (stereo not given) | inactive: -2.77% | – | –
CCc1nnc(NC(=O)CSc2nccn2Cc2ccc(F)cc2)s1 | inactive: -13.5% | – | –
COc1ccc2nc3oc(C(=O)N(C)c4ccc(Cl)cc4)cc3cc2c1 | – | inactive | –
Cc1c(-c2ccc(O)cc2)n(Cc2ccc(OCCN3CCCCCC3)cc2)c2ccc(O)cc12 | inactive: 1.54% | – | –
Cc1nnc(N2CCN(c3ccccc3F)CC2)c2c1nnn2Cc1ccccc1Cl | inactive: -15.1% | – | –
CC(C)(C)c1ccc(C(=O)Nc2ccc(-c3nc4cc(Cl)ccc4o3)cc2)cc1 | inactive: -7.51% | – | –

Structure (SMILES) | activity change, negative = inhibition | outcome | Potency
CCN(c1ccccc1)S(=O)(=O)c1nnc(NC(=O)COc2ccccc2F)s1 | inactive: 1.52% | – | –
C=Cc1c(C)c2cc3nc(cc4[nH]c(cc5nc(cc1[nH]2)C(C)=C5CCC(=O)O)c(CCC(=O)OC)c4C)[C@@]1(C)C3=CC=C(C(=O)OC)[C@H]1C(=O)OC | inactive: 24.6% | – | –
CCOc1ccc(CC(=O)NC2CC(=O)N(c3ccc4c(c3)OCCO4)C2)cc1 (stereo not given) | – | inactive | –
CC(=O)Nc1ccccc1-c1nc2ccccc2n(C(C)C(=O)c2ccc(C)c(C)c2)c1=O (stereo not given) | – | inactive | –
Cc1cc(C)n(-c2nc3cc(Cl)c(Cl)cc3nc2Nc2c(C)cccc2C)n1 | inactive: -1.93% | – | –
CC(=O)Nc1ccc(S(=O)(=O)Nc2ccc3c(c2)n(C)c(=O)n3C)c(C)c1 | inactive: 5.76% | – | –
Cc1ccc(Nc2cc(-c3ccccc3)nc(C)n2)cc1 | inactive: -4.74% | – | –
COc1ccc(-c2[nH]ncc2C(=O)NCc2ccccc2OC)cc1 | inactive: 21.6% | – | –
Cc1ccc(NC(=O)CN(C)S(=O)(=O)c2cccc3nsnc23)c(C)c1 | inactive: 0.19% | – | –
COc1cc(C2C(=O)N(C3CCC(C)CC3)CC(=O)N2CCc2ccc(Cl)cc2)ccc1OC(C)C (stereo not given) | – | inactive | –
COc1ccc(CNC(=O)C(=O)NCC(c2cccnc2)N2CCN(c3ccccc3F)CC2)cc1 (stereo not given) | inactive: -11.9% | – | –
COc1ccc(OC)c(NC(=O)CCc2c(C)nc3c(-c4ccccc4)c(C)nn3c2C)c1 | inactive: 16.3% | – | –
COc1nc(Oc2ccc(=O)n(-c3ccccc3)n2)nc(N(C)C)n1 | inactive: -1.1% | – | –
CCc1cccc(NC(=O)c2ccc3c(=O)n4nc(Nc5ccccc5OC)sc4nc3c2)c1 | – | inactive | –
CCCN(CCC)CCNC(=O)c1cc(Sc2ccc(Cl)cc2)nc2ccccc12 | – | inactive | –
CCOC(=O)c1c(NC(=O)c2cc3ccccc3c(=O)o2)sc2c1CCCC2 | inactive: 0.314% | – | –
CC(C=CC1=C(C)CCCC1(C)C)=CC=CC(C)=CC(=O)O | – | – | inactive
Cc1ccc(NC(=O)[C@H](Cc2ccccc2)N2Cc3ccccc3C2=O)cc1 | inactive: 21.2% | – | –
CCSC1=NC2(CCN(C(=O)NC3CCCCC3)CC2)N=C1c1ccc(C)c(C)c1 | inactive: -11.1% | – | –
Cc1ccc(S(=O)(=O)c2cn(CC(=O)Nc3ccc4c(c3)OCO4)c3ccc(F)cc3c2=O)cc1 | – | inactive | –
Cc1cccc(CSCCNC(=O)CN(c2ccccc2)S(=O)(=O)N(C)C)c1 | inactive: 4.73% | – | –
Cc1cc2n(n1)CCCN2C(=O)Nc1cccc(C)c1C | inactive: -14.3% | – | –
Cc1cccc(Nc2nc3ccccc3n3c(N)nnc23)c1 | inactive: 3.95% | – | –
COc1cccc(N2CCN(c3ncc4c(n3)CCN(Cc3ccc(Br)cc3)C4)CC2)c1 | inactive: -3.33% | – | –

Structure (SMILES) | activity change, negative = inhibition | outcome | Potency
Cc1ccc(Cn2c(=O)c3cccnc3n(Cc3ccc(F)cc3)c2=O)cc1 | inactive: -2.87% | – | –
CCOc1ccc(-n2c(SC(C)C(=O)OC)nc3c([nH]c4ccccc43)c2=O)cc1 (stereo not given) | inactive: -3.23% | – | –
COc1ccc(Cl)cc1NC(=O)c1nc(S(C)(=O)=O)ncc1N(Cc1ccc(C)cc1)Cc1ccco1 | inactive: 6.8% | – | –
Cc1cc2oc(C(=O)Nc3ccc(S(=O)(=O)Nc4onc(C)c4C)cc3)cc(=O)c2cc1C | inactive: -21.3% | – | –
Cc1ccc(OC(C)C(=O)NCC2(N3CCOCC3)CCCCC2)cc1C (stereo not given) | – | inactive | –
COc1ccccc1CNC(=O)CCC1N=C2c3ccccc3N=C(SCC(=O)NCCc3ccccc3)N2C1=O (stereo not given) | inactive: 3.72% | – | –
Cc1c(C(=O)N(C)C)sc2c1c(=O)n(-c1ccc(F)cc1)c(=O)n2CC(=O)N(C)c1ccccc1 | inactive: 1.97% | – | –
Cc1cccc(CNC(=O)c2ccc(Cn3c(SCc4ccccc4)nc4cccnc43)cc2)c1 | inactive: -26.3% | – | –
CCc1ccc2oc(C(=O)Nc3nc(-c4ccccc4)ns3)c(C)c2c1 | inactive: -9.93% | – | –
Cc1ccccc1C(=O)Nc1sc2c(c1C(=O)N1CCC(C)CC1)CCCC2 | inactive: -4.45% | – | –
O=C(CSc1nc(=O)[nH]c2c1CCCC2)NCc1ccc(Cl)cc1 | inactive: -2.44% | – | –
CCOC(=O)c1c(NC(=O)/C=C/c2ccc(OC)cc2)sc2c1CCC(C)C2 (stereo not given) | – | inactive | –
NC[C@H](O)c1ccc(O)c(O)c1 | inactive: -2.82% | – | –
CCCCSCCCNC(=O)c1cc(-c2cccnc2)nc2ccc(S(=O)(=O)N3CCC(C)CC3)cc12 | – | inactive | –
CCCCCCNc1ncnc2c1sc1nc(N3CCOCC3)c3c(c12)CCCC3 | – | inactive | –
COc1ccc(NC(=O)Cn2c(=O)n(CC3CCCO3)c(=O)c3ccccc32)cc1 (stereo not given) | – | inactive | –
O=C(Nc1ccc(Oc2ccccc2)cc1)C1CCN(S(=O)(=O)c2ccccc2)CC1 | inactive: 0.841% | – | –
Cc1oc2ccc(O)c(CN3CCN(Cc4ccccc4)CC3)c2c1C(=O)Nc1cccc(Cl)c1C | inactive: -3.74% | – | –
CCCN(C(=O)c1nn(-c2ccc(C)cc2)c(=O)c2c1c1ccccc1n2C)c1ccccc1C | inactive: -2.94% | – | –
O=C(Nc1cccc(C(=O)N2CCN(c3ccc(F)cc3)CC2)c1)c1nsc2ccccc12 | – | inactive | –
CC(=O)c1cc(-c2ccc(F)cc2)n(CCC(=O)NCc2ccc(C)cc2)c1C | inactive: -5.88% | – | –
Cc1c(Cl)cccc1NC(=O)CN1C(=O)CSc2ccc(S(=O)(=O)N3CCCC3)cc21 | inactive: -27.8% | – | –
CCOc1ccc(NC(=O)c2cnn3c(C(F)F)cc(-c4ccc(C)cc4)nc23)cc1 | inactive: -17.3% | – | –
COc1ccccc1/C=C/c1nc(C#N)c(NC(C)c2ccccc2)o1 (stereo not given) | – | inactive | –

Structure (SMILES) | activity change, negative = inhibition | outcome | Potency
CC(=O)c1ccc(N2CCN(C(=O)Cn3ncc4c3-c3ccccc3OC4)CC2)cc1 | – | inactive | –
Cc1ccc(-n2ncc(C(=O)N3CCN(C4CCCCC4)CC3)c2C2CCN(C(=O)OC(C)(C)C)CC2)cc1 | – | inactive | –
O=c1cc(COc2cccc(C(F)(F)F)c2)nc2sc3c(n12)CCCC3 | – | inactive | –
Cc1ccc(NC(=O)CN2CCN(C3CCCCC3)C(=O)C2=O)cc1 | – | inactive | –
Cc1ccccc1CCNCc1c(C(=O)O)c(C)n(Cc2c(F)cccc2Cl)c1C | inactive: -12.7% | – | –
CCc1ccc(Sc2cc(C(=O)NCCCN3CCCC(C)C3)c3ccccc3n2)cc1 (stereo not given) | inactive: -10.8% | – | –
Clc1ccc(CN2CCc3nc(Nc4ccc5c(c4)OCCO5)ncc3C2)cc1 | inactive: -2.54% | – | –
COc1ccccc1CNc1nc(-c2ccco2)nn1S(=O)(=O)c1ccc(C)cc1 | inactive: 5.92% | – | –
CCOc1ccccc1CN(CCc1ccc2c(c1)OCO2)Cc1cc(OC)c(OC)cc1OC | inactive: -1.39% | – | –
CC(=O)Nc1ccc2nc(SCc3ccccc3)sc2c1 | inactive: -25% | – | –
COC(=O)c1cc(Cl)ccc1NC(=O)Cn1c(C)cc(C)c(C#N)c1=O | inactive: -7.42% | – | –
CC(C)NC(=O)c1nn(C)c2c1CS(=O)(=O)c1ccccc1-2 | inactive: -0.412% | – | –
CCn1c(SCC(=O)Nc2cccc(Cl)c2)nnc1-c1nonc1NC(C)=O | inactive: -0.246% | – | –
Cc1ccc(-c2nsc(NC(=O)c3oc4cc(C)c(Cl)cc4c3C)n2)cc1 | – | inactive | –
O=C(c1ccc(F)cc1)N1c2ncnn2C2(CCCCC2)[C@@H]2CCCC[C@@H]21 | inactive: -12.7% | – | –
COc1ccc(CNC(=O)C(=O)NCC(c2cccs2)S(=O)(=O)c2ccc(C)cc2)cc1 (stereo not given) | inactive: 1.57% | – | –
CCOC(=O)N1CCC(NC(=O)c2cnn(-c3cccc(C)c3)c2C2CCN(C(=O)OC(C)(C)C)CC2)CC1 | – | inactive | –
Cc1ccccc1C(=O)NCc1ccc2c(c1)CCN2C(=O)c1ccccc1 | inactive: -9.77% | – | –
CCn1c(=O)c2sccc2n2c(CCCC(=O)N3CCN(c4ccccc4OC)CC3)nnc12 | inactive: -8.55% | – | –
CC(CNC(=O)c1ccc(Cn2c(SCc3ccccc3)nc3cccnc32)cc1)c1ccccc1 (stereo not given) | inactive: 22.8% | – | –
COc1ccc(CCNC(=O)Cn2nnc(-c3cccc(C(F)(F)F)c3)n2)cc1OC | inactive: 5.49% | – | –
Cc1ccc(-n2nc(CO)c(C(=O)NCCO)n2)cc1 | – | inactive | –
COc1ccc(CNC(=O)c2cc(Nc3ccc(OC)cc3OC)nc3ccccc23)cc1 | inactive: -5.58% | – | –
